According to the supplement of paper PMC11876631:
± gives the standard deviation of the averaged measurements. Laboratory Escherichia coli strains with one amino-acid change in an essential protein, pooled on minimal glucose agar with carbenicillin or gentamicin at twice the control MIC (plus kanamycin and chloramphenicol for the plasmids), 48 h. Fold change of barcode share against drug-free plates; higher = less susceptible. Active = above 20 in both replicates (the paper's putatively resistant). '<' = one read or none on drug, '>' = one read or none on a drug-free plate. Shares are relative, so most strains fall below 1 when a few take over. Listed are strains with at least 15 reads on both drug-free plates, and hits; most hits rest on fewer reference reads. Replicate rank correlation about 0.5. Edits are read from barcodes.

B1: metE V481A (protein)
chain: MTILNHTLGFPRVGLRRELKKAQESYWAGNSTREELLAVGRELRARHWDQQKQAGIDLLPVGDFAWYDHVLTTSLLLGNVPARHQNKDGSVDIDTLFRIGRGRAPTGEPAAAAEMTKWFNTNYHYMVPEFVKGQQFKLTWTQLLDEVDEALALGHKVKPVLLGPVTWLWLGKVKGEQFDRLSLLNDILPVYQQVLAELAKRGIEWVQIDEPALVLELPQAWLDAYKPAYDALQGQVKLLLTTYFEGVTPNLDTITALPVQGLHVDLVHGKDDVAELHKRLPSDWLLSAGLINGRNVWRADLTEKYAQIKDIVGKRDLWVASSCSLLHSPIDLSVETRLDAEVKSWFAFALQKCHELALLRDALNSGDTAALAEWSAPIQARRHSTRVHNPAVEKRLAAITAQDSQRANVYEVRAEAQRARFKLPAWPTTTIGSFPQTTEIRTLRLDFKKGNLDANNYRTGIAEHIKQAIVEQERLGLDVLAHGEAERNDMVEYFGEHLDGFVFTQNGWVQSYGSRCVKPPIVIGDISRPAPITVEWAKYAQSLTDKPVKGMLTGPVTILCWSFPREDVSRETIAKQIALALRDEVADLEAAGIGIIQIDEPALREGLPLRRSDWDAYLQWGVEAFRINAAVAKDDTQIHTHMCYCEFNDIMDSIAALDADVITIETSRSDMELLESFEEFDYPNEIGPGVYDIHSPNVPSVEWIEALLKKAAKRIPAERLWVNPDCGLKTRGWPETRAALANMVQAAQNLRRG
B2: metE V481W (protein)
chain: MTILNHTLGFPRVGLRRELKKAQESYWAGNSTREELLAVGRELRARHWDQQKQAGIDLLPVGDFAWYDHVLTTSLLLGNVPARHQNKDGSVDIDTLFRIGRGRAPTGEPAAAAEMTKWFNTNYHYMVPEFVKGQQFKLTWTQLLDEVDEALALGHKVKPVLLGPVTWLWLGKVKGEQFDRLSLLNDILPVYQQVLAELAKRGIEWVQIDEPALVLELPQAWLDAYKPAYDALQGQVKLLLTTYFEGVTPNLDTITALPVQGLHVDLVHGKDDVAELHKRLPSDWLLSAGLINGRNVWRADLTEKYAQIKDIVGKRDLWVASSCSLLHSPIDLSVETRLDAEVKSWFAFALQKCHELALLRDALNSGDTAALAEWSAPIQARRHSTRVHNPAVEKRLAAITAQDSQRANVYEVRAEAQRARFKLPAWPTTTIGSFPQTTEIRTLRLDFKKGNLDANNYRTGIAEHIKQAIVEQERLGLDVLWHGEAERNDMVEYFGEHLDGFVFTQNGWVQSYGSRCVKPPIVIGDISRPAPITVEWAKYAQSLTDKPVKGMLTGPVTILCWSFPREDVSRETIAKQIALALRDEVADLEAAGIGIIQIDEPALREGLPLRRSDWDAYLQWGVEAFRINAAVAKDDTQIHTHMCYCEFNDIMDSIAALDADVITIETSRSDMELLESFEEFDYPNEIGPGVYDIHSPNVPSVEWIEALLKKAAKRIPAERLWVNPDCGLKTRGWPETRAALANMVQAAQNLRRG
B3: metE V481Q (protein)
chain: MTILNHTLGFPRVGLRRELKKAQESYWAGNSTREELLAVGRELRARHWDQQKQAGIDLLPVGDFAWYDHVLTTSLLLGNVPARHQNKDGSVDIDTLFRIGRGRAPTGEPAAAAEMTKWFNTNYHYMVPEFVKGQQFKLTWTQLLDEVDEALALGHKVKPVLLGPVTWLWLGKVKGEQFDRLSLLNDILPVYQQVLAELAKRGIEWVQIDEPALVLELPQAWLDAYKPAYDALQGQVKLLLTTYFEGVTPNLDTITALPVQGLHVDLVHGKDDVAELHKRLPSDWLLSAGLINGRNVWRADLTEKYAQIKDIVGKRDLWVASSCSLLHSPIDLSVETRLDAEVKSWFAFALQKCHELALLRDALNSGDTAALAEWSAPIQARRHSTRVHNPAVEKRLAAITAQDSQRANVYEVRAEAQRARFKLPAWPTTTIGSFPQTTEIRTLRLDFKKGNLDANNYRTGIAEHIKQAIVEQERLGLDVLQHGEAERNDMVEYFGEHLDGFVFTQNGWVQSYGSRCVKPPIVIGDISRPAPITVEWAKYAQSLTDKPVKGMLTGPVTILCWSFPREDVSRETIAKQIALALRDEVADLEAAGIGIIQIDEPALREGLPLRRSDWDAYLQWGVEAFRINAAVAKDDTQIHTHMCYCEFNDIMDSIAALDADVITIETSRSDMELLESFEEFDYPNEIGPGVYDIHSPNVPSVEWIEALLKKAAKRIPAERLWVNPDCGLKTRGWPETRAALANMVQAAQNLRRG
B4: metE V481D (protein)
chain: MTILNHTLGFPRVGLRRELKKAQESYWAGNSTREELLAVGRELRARHWDQQKQAGIDLLPVGDFAWYDHVLTTSLLLGNVPARHQNKDGSVDIDTLFRIGRGRAPTGEPAAAAEMTKWFNTNYHYMVPEFVKGQQFKLTWTQLLDEVDEALALGHKVKPVLLGPVTWLWLGKVKGEQFDRLSLLNDILPVYQQVLAELAKRGIEWVQIDEPALVLELPQAWLDAYKPAYDALQGQVKLLLTTYFEGVTPNLDTITALPVQGLHVDLVHGKDDVAELHKRLPSDWLLSAGLINGRNVWRADLTEKYAQIKDIVGKRDLWVASSCSLLHSPIDLSVETRLDAEVKSWFAFALQKCHELALLRDALNSGDTAALAEWSAPIQARRHSTRVHNPAVEKRLAAITAQDSQRANVYEVRAEAQRARFKLPAWPTTTIGSFPQTTEIRTLRLDFKKGNLDANNYRTGIAEHIKQAIVEQERLGLDVLDHGEAERNDMVEYFGEHLDGFVFTQNGWVQSYGSRCVKPPIVIGDISRPAPITVEWAKYAQSLTDKPVKGMLTGPVTILCWSFPREDVSRETIAKQIALALRDEVADLEAAGIGIIQIDEPALREGLPLRRSDWDAYLQWGVEAFRINAAVAKDDTQIHTHMCYCEFNDIMDSIAALDADVITIETSRSDMELLESFEEFDYPNEIGPGVYDIHSPNVPSVEWIEALLKKAAKRIPAERLWVNPDCGLKTRGWPETRAALANMVQAAQNLRRG
B5: metE V481P (protein)
chain: MTILNHTLGFPRVGLRRELKKAQESYWAGNSTREELLAVGRELRARHWDQQKQAGIDLLPVGDFAWYDHVLTTSLLLGNVPARHQNKDGSVDIDTLFRIGRGRAPTGEPAAAAEMTKWFNTNYHYMVPEFVKGQQFKLTWTQLLDEVDEALALGHKVKPVLLGPVTWLWLGKVKGEQFDRLSLLNDILPVYQQVLAELAKRGIEWVQIDEPALVLELPQAWLDAYKPAYDALQGQVKLLLTTYFEGVTPNLDTITALPVQGLHVDLVHGKDDVAELHKRLPSDWLLSAGLINGRNVWRADLTEKYAQIKDIVGKRDLWVASSCSLLHSPIDLSVETRLDAEVKSWFAFALQKCHELALLRDALNSGDTAALAEWSAPIQARRHSTRVHNPAVEKRLAAITAQDSQRANVYEVRAEAQRARFKLPAWPTTTIGSFPQTTEIRTLRLDFKKGNLDANNYRTGIAEHIKQAIVEQERLGLDVLPHGEAERNDMVEYFGEHLDGFVFTQNGWVQSYGSRCVKPPIVIGDISRPAPITVEWAKYAQSLTDKPVKGMLTGPVTILCWSFPREDVSRETIAKQIALALRDEVADLEAAGIGIIQIDEPALREGLPLRRSDWDAYLQWGVEAFRINAAVAKDDTQIHTHMCYCEFNDIMDSIAALDADVITIETSRSDMELLESFEEFDYPNEIGPGVYDIHSPNVPSVEWIEALLKKAAKRIPAERLWVNPDCGLKTRGWPETRAALANMVQAAQNLRRG
B6: metK L93A (protein)
chain: MAKHLFTSESVSEGHPDKIADQISDAVLDAILEQDPKARVACETYVKTGMVLVGGEITTSAWVDIEEITRNTVREIGYVHSDMGFDANSCAVASAIGKQSPDINQGVDRADPLEQGAGDQGLMFGYATNETDVLMPAPITYAHRLVQRQAEVRKNGTLPWLRPDAKSQVTFQYDDGKIVGIDAVVLSTQHSEEIDQKSLQEAVMEEIIKPILPAEWLTSATKFFINPTGRFVIGGPMGDCGLTGRKIIVDTYGGMARHGGGAFSGKDPSKVDRSAAYAARYVAKNIVAAGLADRCEIQVSYAIGVAEPTSIMVETFGTEKVPSEQLTLLVREFFDLRPYGLIQMLDLLHPIYKETAAYGHFGREHFPWEKTDKAQLLRDAAGLK
B7: metK L93W (protein)
chain: MAKHLFTSESVSEGHPDKIADQISDAVLDAILEQDPKARVACETYVKTGMVLVGGEITTSAWVDIEEITRNTVREIGYVHSDMGFDANSCAVWSAIGKQSPDINQGVDRADPLEQGAGDQGLMFGYATNETDVLMPAPITYAHRLVQRQAEVRKNGTLPWLRPDAKSQVTFQYDDGKIVGIDAVVLSTQHSEEIDQKSLQEAVMEEIIKPILPAEWLTSATKFFINPTGRFVIGGPMGDCGLTGRKIIVDTYGGMARHGGGAFSGKDPSKVDRSAAYAARYVAKNIVAAGLADRCEIQVSYAIGVAEPTSIMVETFGTEKVPSEQLTLLVREFFDLRPYGLIQMLDLLHPIYKETAAYGHFGREHFPWEKTDKAQLLRDAAGLK
B8: metK L93Q (protein)
chain: MAKHLFTSESVSEGHPDKIADQISDAVLDAILEQDPKARVACETYVKTGMVLVGGEITTSAWVDIEEITRNTVREIGYVHSDMGFDANSCAVQSAIGKQSPDINQGVDRADPLEQGAGDQGLMFGYATNETDVLMPAPITYAHRLVQRQAEVRKNGTLPWLRPDAKSQVTFQYDDGKIVGIDAVVLSTQHSEEIDQKSLQEAVMEEIIKPILPAEWLTSATKFFINPTGRFVIGGPMGDCGLTGRKIIVDTYGGMARHGGGAFSGKDPSKVDRSAAYAARYVAKNIVAAGLADRCEIQVSYAIGVAEPTSIMVETFGTEKVPSEQLTLLVREFFDLRPYGLIQMLDLLHPIYKETAAYGHFGREHFPWEKTDKAQLLRDAAGLK
B9: metK L93P (protein)
chain: MAKHLFTSESVSEGHPDKIADQISDAVLDAILEQDPKARVACETYVKTGMVLVGGEITTSAWVDIEEITRNTVREIGYVHSDMGFDANSCAVPSAIGKQSPDINQGVDRADPLEQGAGDQGLMFGYATNETDVLMPAPITYAHRLVQRQAEVRKNGTLPWLRPDAKSQVTFQYDDGKIVGIDAVVLSTQHSEEIDQKSLQEAVMEEIIKPILPAEWLTSATKFFINPTGRFVIGGPMGDCGLTGRKIIVDTYGGMARHGGGAFSGKDPSKVDRSAAYAARYVAKNIVAAGLADRCEIQVSYAIGVAEPTSIMVETFGTEKVPSEQLTLLVREFFDLRPYGLIQMLDLLHPIYKETAAYGHFGREHFPWEKTDKAQLLRDAAGLK

Each protein was assayed against Escherichia coli (laboratory strain) (assay: barcode share on antibiotic plates over drug-free plates; higher = less susceptible). Conditions: antibiotic: carbenicillin; 2× MIC (3.1 µg/mL).
Experimental: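 A pool of E. coli strains, each edited to carry one amino-acid change in an essential protein, was grown for 48 h on minimal glucose agar with or without antibiotic; strain barcodes were sequenced; mean of two replicates.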
B1 was tested, and the “fold change of barcode share” value was 1.92 ± 1.3.
With B2 the “fold change of barcode share” value was 0.46 ± 0.092.
With B3 the “fold change of barcode share” value was 0.71 ± 0.11.
For B4, the “fold change of barcode share” value was 0.532 ± 0.19.
For B5, the “fold change of barcode share” value was 0.635 ± 0.35.
For B6, the “fold change of barcode share” value was 0.237 ± 0.038.
With B7 the “fold change of barcode share” value was 0.452 ± 0.083.
With B8 the “fold change of barcode share” value was 0.383 ± 0.013.
With B9 the “fold change of barcode share” value was 0.548 ± 0.075.

Same assay, conditions: antibiotic: gentamicin; 2× MIC (MIC 0.45 µg/mL)
For B1, the “fold change of barcode share” value was 0.011 ± 0.0008.
For B2, the “fold change of barcode share” value was 0.0277 ± 0.0032.
For B3, the “fold change of barcode share” value was 0.014 ± 0.011.
For B4, the “fold change of barcode share” value was 0.0102 ± 0.0045.
With B5 the “fold change of barcode share” value was 0.0406 ± 0.048.
With B6 the “fold change of barcode share” value was 0.006369 ± 4.1e-05.
With B7 the “fold change of barcode share” value was 0.00639 ± 0.0048.
With B8 the “fold change of barcode share” value was less than 0.00366.
In the case of B9, the “fold change of barcode share” value is reported as 0.00851 ± 0.0064.
